In paper PMC8985225, “Conserved and divergent features of neuronal CaMKII holoenzyme structure, function, and high-order assembly” (Cell reports, 2021):
Values joined by “and” are separate entries in the source; they are usually repeats but may differ in a detail not shown here. Equal values may be shown once.

Molecular target: the molecule itself
Experiment: negative-stain single-particle EM; purified holoenzymes diluted in 50 mM HEPES pH 7.4, 120 mM KCl, 0.5 mM EGTA (~0.35 μM), stained with uranyl formate; basal state; focused reference-free 2D classification of the hub domain (15 nm mask, no symmetry applied); stoichiometry of the holoenzyme

B1: Ca^2+/CaM-dependent kinase II β (CaMKIIβ) holoenzyme (enzyme)
chain: not shown
notes: CaMKIIβ, rodent, the major splice variant of adult mammalian brain (β, not β', βe, βe' or βM); full-length subunit of the homomeric holoenzyme (N-terminal kinase domain, regulatory domain, ~92-residue linker, C-terminal association/hub domain); No tag is stated; also called β isoform; source: Sf9 cells via baculovirus, purified (phosphocellulose column, then CaM-sepharose column); copies: 12
stoichiometry N: 12 and 14 and 16
